The nature of this data set: xn = mol fraction of the nth substance listed. As to conditions: 101.3 kPa.

Some of these densities may be calculated back from excess volumes.

Broadly, the mass density is mass per unit of volume. Regarding `c1c[nH]cn1` + CC(C)C[P+](C)(CC(C)C)CC(C)C.Cc1ccc(S(=O)(=O)[O-])cc1, the mass density is, setting by setting: (313.08 K, x2 = 0.5) 1067 kg/m3; (323.06 K, x2 = 0.5) 1061 kg/m3; (333.12 K, x2 = 0.5) 1054 kg/m3; (343.12 K, x2 = 0.5) 1048 kg/m3; (353.1 K, x2 = 0.5) 1042 kg/m3.
Consider `c1c[nH]cn1` + CCCCCC[N+]1(C)CCCC1.O=S(=O)([N-]S(=O)(=O)C(F)(F)F)C(F)(F)F, for which the mass density stood at 1279 kg/m3 (323.09 K, x2 = 0.5); 1262 kg/m3 (343.09 K, x2 = 0.5); 1254 kg/m3 (353.13 K, x2 = 0.5).
`c1c[nH]cn1` + CCCC[N+]1(C)CCCC1.O=S(=O)([N-]S(=O)(=O)C(F)(F)F)C(F)(F)F: the mass density by setting is: (323.05 K, x2 = 0.5) 1323 kg/m3; (333.08 K, x2 = 0.5) 1314 kg/m3; (343.06 K, x2 = 0.5) 1305 kg/m3; (353.1 K, x2 = 0.5) 1297 kg/m3.
In the case of `CCCC[P+](CCCC)(CCCC)CCCC.CS(=O)(=O)[O-]` + c1c[nH]cn1, the mass density runs as follows: (303.05 K, x1 = 0.5) 1018 kg/m3; (323.15 K, x1 = 0.5) 1005 kg/m3; (333.05 K, x1 = 0.5) 999 kg/m3; (343.05 K, x1 = 0.5) 992 kg/m3.

Source of the values: a compilation of properties of binary mixtures (doi:10.1007/s10953-018-0732-1).
